This is one part of the list. Single values are uncertain, as repeats are few or missing.
These compounds were tested on UACC62 (assay: cell count relative to DMSO control; melanoma cells; higher = more viable cells). Settings: library dose: standard library concentration; 72 h.
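Also: cells treated in 1,536-well plates, then fixed and DAPI-stained, with nuclei counted from automated high-throughput microscope images.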

SMILES	cell count [%]
C[C@]12O[C@H](C[C@]1(O)CO)n1c3ccccc3c3c4c(c5c6ccccc6n2c5c31)CNC4=O [Lestaurtinib] + O=C(O)c1ccc(-c2c[nH]c3ncc(-c4ccccc4)cc23)cc1C1CCCC1 [GSK650394] (first compound 0.02 µM, partner dose 0.8 µM)	92.5
Cn1cc(C2=C(c3cn(C4CCN(Cc5ccccn5)CC4)c4ccccc34)C(=O)NC2=O)c2ccccc21 [Enzastaurin] + C=C(c1ccc(C(=O)O)cc1)c1cc2c(cc1C)C(C)(C)CCC2(C)C [Bexarotene] (first compound 4 µM, partner dose 10 µM)	87.4
N.N.[Cl][Pt][Cl] [cisplatin] + CO[C@@H]1[C@H](N(C)C(=O)c2ccccc2)C[C@H]2O[C@]1(C)n1c3ccccc3c3c4c(c5c6ccccc6n2c5c31)C(=O)NC4 [Midostaurin] (first compound 8 µM, partner dose 0.4 µM)	66.6
Cn1cc(C2=C(c3cn(C4CCN(Cc5ccccn5)CC4)c4ccccc34)C(=O)NC2=O)c2ccccc21 [Enzastaurin] + CNC(=O)c1cc(Oc2ccc(NC(=O)Nc3ccc(Cl)c(C(F)(F)F)c3)cc2)ccn1 [sorafenib] (first compound 4 µM, partner dose 2 µM)	94.7
Cn1cc(C2=C(c3cn(C4CCN(Cc5ccccn5)CC4)c4ccccc34)C(=O)NC2=O)c2ccccc21 [Enzastaurin] + CC(C)C[C@H](NC(=O)[C@H](Cc1ccccc1)NC(=O)c1cnccn1)B(O)O [Bortezomib] (first compound 4 µM, partner dose 0.005 µM)	53.5
Cn1cc(C2=C(c3cn(C4CCN(Cc5ccccn5)CC4)c4ccccc34)C(=O)NC2=O)c2ccccc21 [Enzastaurin] + Cc1cc(Nc2cc(N3CCN(C)CC3)nc(/C=C/c3ccccc3)n2)n[nH]1 [ENMD2076] (first compound 4 µM, partner dose 0.2 µM)	45.2
C[As](C)SC[C@H](NC(=O)CC[C@H](N)C(=O)O)C(=O)NCC(=O)O [Darinaparsin] + Cn1cc(/C=C2\C(=O)Nc3cccnc32)c2ccccc21 [GW441756] (first compound 2 µM, partner dose 2 µM)	93.7
C[As](C)SC[C@H](NC(=O)CC[C@H](N)C(=O)O)C(=O)NCC(=O)O [Darinaparsin] + CC(C)(C)c1cnc(CSc2cnc(NC(=O)C3CCNCC3)s2)o1 [SNS-032] (first compound 2 µM, partner dose 0.05 µM)	59.1
N.N.[Cl][Pt][Cl] [cisplatin] + CS(=O)(=O)CCNCc1ccc(-c2ccc3ncnc(Nc4ccc(OCc5cccc(F)c5)c(Cl)c4)c3c2)o1 [lapatinib] (first compound 8 µM, partner dose 4 µM)	82.8
C[C@]12O[C@H](C[C@]1(O)CO)n1c3ccccc3c3c4c(c5c6ccccc6n2c5c31)CNC4=O [Lestaurtinib] + C[C@]1(c2nc3c(C(N)=O)cccc3[nH]2)CCCN1 [Veliparib] (first compound 0.02 µM, partner dose 7 µM)	78.3
Cn1cc(C2=C(c3cn(C4CCN(Cc5ccccn5)CC4)c4ccccc34)C(=O)NC2=O)c2ccccc21 [Enzastaurin] + CN1CCN(c2ccc3nc(-c4c(N)c5c(F)cccc5[nH]c4=O)[nH]c3c2)CC1 [Dovitinib] (first compound 4 µM, partner dose 0.5 µM)	64.9
Cn1cc(C2=C(c3cn(C4CCN(Cc5ccccn5)CC4)c4ccccc34)C(=O)NC2=O)c2ccccc21 [Enzastaurin] + C[C@@H](Oc1cc(-c2cnn(C3CCNCC3)c2)cnc1N)c1c(Cl)ccc(F)c1Cl [Crizotinib] (first compound 4 µM, partner dose 1 µM)	47.4
C[As](C)SC[C@H](NC(=O)CC[C@H](N)C(=O)O)C(=O)NCC(=O)O [Darinaparsin] + Cc1cc(SCc2sc(-c3ccc(C(F)(F)F)c(F)c3)nc2C)ccc1OCC(=O)O [GW0742] (first compound 2 µM, partner dose 10 µM)	99.6
C[C@]12O[C@H](C[C@]1(O)CO)n1c3ccccc3c3c4c(c5c6ccccc6n2c5c31)CNC4=O [Lestaurtinib] + O=C(O)c1ccc2c(c1)nc(Nc1cccc(Cl)c1)c1ccncc12 [CX4945] (first compound 0.02 µM, partner dose 2 µM)	64.1
N.N.[Cl][Pt][Cl] [cisplatin] + Clc1ccc(Nc2nnc(Cc3ccncc3)c3ccccc23)cc1 [vatalanib] (first compound 8 µM, partner dose 10 µM)	66.8
Cn1cc(C2=C(c3cn(C4CCN(Cc5ccccn5)CC4)c4ccccc34)C(=O)NC2=O)c2ccccc21 [Enzastaurin] + COc1cc(Nc2ncc(F)c(Nc3ccc4c(n3)NC(=O)C(C)(C)O4)n2)cc(OC)c1OC [Tamatinib] (first compound 4 µM, partner dose 2 µM)	62.4

SMILES	cell count [%]
N.N.[Cl][Pt][Cl] [cisplatin] + COc1cc(Nc2ncc(F)c(Nc3ccc4c(n3)NC(=O)C(C)(C)O4)n2)cc(OC)c1OC [Tamatinib] (first compound 8 µM, partner dose 2 µM)	73.9
C[C@]12O[C@H](C[C@]1(O)CO)n1c3ccccc3c3c4c(c5c6ccccc6n2c5c31)CNC4=O [Lestaurtinib] + Nc1ncn([C@H]2C[C@H](O)[C@@H](CO)O2)c(=O)n1 [decitabine] (first compound 0.02 µM, partner dose 0.5 µM)	60.6
C[As](C)SC[C@H](NC(=O)CC[C@H](N)C(=O)O)C(=O)NCC(=O)O [Darinaparsin] + CCc1ccc(CCOc2ccc(CC3SC(=O)NC3=O)cc2)nc1 [pioglitazone] (first compound 2 µM, partner dose 10 µM)	86.3
C[As](C)SC[C@H](NC(=O)CC[C@H](N)C(=O)O)C(=O)NCC(=O)O [Darinaparsin] + O=C1NC(=O)/C(=C/c2ccc(-c3ccc(F)cc3O)o2)S1 [AS252424] (first compound 2 µM, partner dose 5 µM)	145
C[C@]12O[C@H](C[C@]1(O)CO)n1c3ccccc3c3c4c(c5c6ccccc6n2c5c31)CNC4=O [Lestaurtinib] + COc1ccc(Cl)c(Nc2nc3ccccc3nc2NS(=O)(=O)c2cccc(NC(=O)C(C)(C)N)c2)c1 [XL147] (first compound 0.02 µM, partner dose 4 µM)	78.3
Cn1cc(C2=C(c3cn(C4CCN(Cc5ccccn5)CC4)c4ccccc34)C(=O)NC2=O)c2ccccc21 [Enzastaurin] + OCc1c[nH]c2ccccc12 [Indole-3-carbinol] (first compound 4 µM, partner dose 4 µM)	94.4
C[As](C)SC[C@H](NC(=O)CC[C@H](N)C(=O)O)C(=O)NCC(=O)O [Darinaparsin] + O=c1cc(-c2cccc3c2Sc2ccccc2S3)oc(N2CCOCC2)c1 [KU55933] (first compound 2 µM, partner dose 5 µM)	60.5
Cn1cc(C2=C(c3cn(C4CCN(Cc5ccccn5)CC4)c4ccccc34)C(=O)NC2=O)c2ccccc21 [Enzastaurin] + Cc1cc(N2CCOCC2)cc2[nH]c(-c3c(NC[C@@H](O)c4cccc(Cl)c4)cc[nH]c3=O)nc12 [BMS536924] (first compound 4 µM, partner dose 1 µM)	74.5
Cn1cc(C2=C(c3cn(C4CCN(Cc5ccccn5)CC4)c4ccccc34)C(=O)NC2=O)c2ccccc21 [Enzastaurin] + NC(=O)Nc1cc(-c2cccc(F)c2)sc1C(=O)N[C@H]1CCCNC1 [AZD7762] (first compound 4 µM, partner dose 0.1 µM)	59.3
N.N.[Cl][Pt][Cl] [cisplatin] + CC(C)(C)c1cnc(CSc2cnc(NC(=O)C3CCNCC3)s2)o1 [SNS-032] (first compound 8 µM, partner dose 0.05 µM)	73.5
N.N.[Cl][Pt][Cl] [cisplatin] + OCCn1cc(-c2cnc3nnn(Cc4ccc5ncccc5c4)c3n2)cn1 [PF04217903] (first compound 8 µM, partner dose 5 µM)	99.1
Cn1cc(C2=C(c3cn(C4CCN(Cc5ccccn5)CC4)c4ccccc34)C(=O)NC2=O)c2ccccc21 [Enzastaurin] + N.N.[Cl][Pt][Cl] [cisplatin] (first compound 4 µM, partner dose 8 µM)	120
C[C@]12O[C@H](C[C@]1(O)CO)n1c3ccccc3c3c4c(c5c6ccccc6n2c5c31)CNC4=O [Lestaurtinib] + OCCn1cc(-c2cnc3nnn(Cc4ccc5ncccc5c4)c3n2)cn1 [PF04217903] (first compound 0.02 µM, partner dose 5 µM)	98.7
Cn1cc(C2=C(c3cn(C4CCN(Cc5ccccn5)CC4)c4ccccc34)C(=O)NC2=O)c2ccccc21 [Enzastaurin] + COc1ccc(Cl)c(Nc2nc3ccccc3nc2NS(=O)(=O)c2cccc(NC(=O)C(C)(C)N)c2)c1 [XL147] (first compound 4 µM, partner dose 4 µM)	70.2
C[As](C)SC[C@H](NC(=O)CC[C@H](N)C(=O)O)C(=O)NCC(=O)O [Darinaparsin] + O=C(O)c1ccc(-c2c[nH]c3ncc(-c4ccccc4)cc23)cc1C1CCCC1 [GSK650394] (first compound 2 µM, partner dose 0.8 µM)	74.9

Reference: the supplement of paper PMC4604168 (melanoma cell lines)
